Screen size: about 220,000 compounds; about 16,000 (7.3%) were called active. Inconclusive results, whose numbers are uncertain, are shown with a selection of clear calls. Calls follow the shape of the dose curve; as a rule, active = well fitted inhibition curve with a large enough effect (not every such curve was filed as active); inconclusive = small, poorly fitted or top-dose-only effect, or another doubt; inactive = no such curve, though single readings can be large or run the other way. Potencies of inconclusive entries are left out as doubtful fits.
molecular target: Aldehyde dehydrogenase 1A1 (Homo sapiens) (UniProt P00352); experiment: qHTS Assay for Inhibitors of Aldehyde Dehydrogenase 1 (ALDH1A1); details: Purified ALDH1A1, NADH fluorescence, propionaldehyde substrate; series mostly up to 75.3 µM
Chain of UniProt P00352 (P00352 whole entry, looked up): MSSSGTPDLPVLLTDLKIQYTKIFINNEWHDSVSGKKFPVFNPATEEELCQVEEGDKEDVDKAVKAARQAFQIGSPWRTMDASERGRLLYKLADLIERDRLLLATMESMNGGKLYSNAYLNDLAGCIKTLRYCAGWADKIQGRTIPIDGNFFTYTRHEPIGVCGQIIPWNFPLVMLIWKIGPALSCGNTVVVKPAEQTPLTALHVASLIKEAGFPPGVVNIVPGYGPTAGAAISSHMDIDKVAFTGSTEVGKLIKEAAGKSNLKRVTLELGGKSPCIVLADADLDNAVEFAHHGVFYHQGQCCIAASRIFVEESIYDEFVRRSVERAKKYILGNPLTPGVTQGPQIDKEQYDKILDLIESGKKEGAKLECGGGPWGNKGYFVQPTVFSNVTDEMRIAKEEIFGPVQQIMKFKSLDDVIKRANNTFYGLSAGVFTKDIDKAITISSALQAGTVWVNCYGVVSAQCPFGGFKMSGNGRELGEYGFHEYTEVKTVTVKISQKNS
Potency is read from the fitted curve at half-maximal effect; tags tell the direction and shape of the fitted curve.

Compound | Potency
Cc1cc(C)n(-c2nc3c(c(=O)[nH]c(=O)n3C)n2C(C)C)n1 | inactive
Cc1cc(C)n(-c2ccc(C(=O)Nc3ccc4c(c3)OCO4)cc2)n1 | inactive
CC(=O)NC(CC(=O)O)c1ccc(F)cc1 (centres undefined) | inactive
CC1CCCCN1C(=O)CSc1nc(C2CC2)nc2c1cnn2-c1ccccc1 (centres undefined) | active: 11.2 µM
Cc1ccc(S(=O)(=O)N(C)CC(=O)OCC(=O)c2c(N)n(C)c(=O)n(C)c2=O)cc1 | inactive
Cc1cc2cc(CNC(=O)c3ccc4c(c3)OCO4)ccc2[nH]1 | active: 35.5 µM
COc1ccc2[nH]c3c(c2c1)CCNC3=O | inconclusive [inhibitor, partial curve]
O=C(C1CCC1)N(CCc1ccccc1)Cc1nc2ccccc2c(=O)[nH]1 | inconclusive [inhibitor, single point]
COC(=O)C/C=C/[C@@H](C)[C@H](O)c1ccccc1Br | inactive
Cc1ccc(C2CC(=O)N3CN(Cc4ccco4)CSC3=C2C#N)cc1 (centres undefined) | active: 11.2 µM
COc1ccc(NC(=O)CSc2nnc(COc3ccccc3)n2Cc2ccco2)cc1OC | inconclusive [inhibitor, single point]
S=C(NCCc1ccccc1)Nc1ccc(Cl)cc1Cl | inconclusive [inhibitor, partial curve]
CCOc1ccc(N=c2scc(-c3ccccc3)n2CCO)cc1 | inconclusive [inhibitor, partial curve]
O=C(Nc1ccc(-c2ccc3nncn3n2)cc1)C1CCCCC1 | inconclusive [inhibitor, partial curve]
COc1ccc(C(C)=O)cc1CN1C(=O)NC2(CCCCCC2)C1=O | inconclusive [inhibitor, single point]
N#Cc1cc([N+](=O)[O-])ccc1N1CCN(c2ccccc2O)CC1 | inconclusive [inhibitor, single point]
O=C(Nc1nc(-c2ccc(S(=O)(=O)N3CCCC3)cc2)cs1)c1cccs1 | inconclusive [inhibitor, partial curve]
c1ccc(-n2ncc3c(NCCN4CCCCC4)ncnc32)cc1 | inconclusive [inhibitor, single point]
CCOc1ccc2c(CC)cc(=O)oc2c1OCC | inconclusive [inhibitor, single point]
COc1ccc(C(=O)CSc2nccc(=O)[nH]2)cc1 | inactive
Cc1cc(CSc2nc(C)cc(=O)[nH]2)c2ncccc2c1 | inconclusive [inhibitor, partial curve]
O=C(NCc1cccnc1)c1ccc(-c2ccc(Cl)cc2)o1 | inconclusive [inhibitor, single point]
COc1cccc(-c2ccc(-c3noc(-c4cccs4)n3)c(OC)n2)c1 | inconclusive [inhibitor, single point]
CCc1ccc2c(c1)c(N=NC1=NC(=O)CS1)c(O)n2CC | inconclusive [inhibitor, single point]
O=C1NC(=O)/C(=C/c2ccc(OS(=O)(=O)c3ccc(F)cc3F)cc2)N1 | inconclusive [inhibitor, partial curve]

Compound | Potency
COc1ccc(Cl)cc1NC(=S)NCc1ccco1 | inactive
O=C(CONS(=O)(=O)c1ccc(Cl)cc1)NCCNc1ncc(C(F)(F)F)cc1Cl | active: 12.6 µM
Cc1ccc(N2C(=O)c3ccccc3C2C(=O)c2cc(C)ccc2O)cc1 (centres undefined) | inconclusive [inhibitor, single point]
CN(C)S(=O)(=O)c1ccc(NC(=S)NC(=O)c2cccs2)cc1 | inconclusive [inhibitor, single point]
Cc1occc1-c1nnc(SCC(=O)N2CCN(c3ccccc3F)CC2)n1C | inconclusive [inhibitor, single point]
Cc1ccc(C2C(C#N)=C(N)Oc3n[nH]c(-c4cccs4)c32)cc1 (centres undefined) | inactive
CCOC(=O)c1ccc(N2C(=O)CC(N3CCC(Nc4ccc(F)cc4)CC3)C2=O)cc1 (centres undefined) | active: 3.16 µM
Cc1ccccc1N=Cc1cc2c(cc1O)OC(N)=C(C#N)C2c1ccccc1 (centres undefined) | inconclusive [inhibitor, partial curve]
CC(=O)Nc1ccc(NC(=O)C(Cc2ccccc2)NC(=O)C2CCCCC2)cc1 (centres undefined) | inactive
CCN(CC)CC#CCC(C)(c1ccccc1)c1ccccc1 | inactive
NC(=O)/C(=N\OC(=O)c1ccco1)c1nc(-c2ccc(Br)cc2)cs1 | active: 12.6 µM
Cn1c(=O)c2c(nc(NCc3cccnc3)n2Cc2ccc(Cl)cc2)n(C)c1=O | inconclusive [inhibitor, single point]
CC(=O)NCCNc1nc(-c2ccc3c(c2)OCO3)nc2ccccc12 | inconclusive [inhibitor, single point]
COc1cccc2c(=O)n(CC(=O)N3CCC(C)CC3)ccc12 | inconclusive [inhibitor, single point]
CC(Cc1n[nH]c(=S)o1)c1ccccc1 (centres undefined) | active: 17.8 µM
CS(=O)(=O)c1ccc(-c2cn3cc(C(=O)O)ccc3n2)cc1 | inconclusive [inhibitor, partial curve]
COc1ccc(NC(=O)CSc2ncnc3c2cnn3Cc2ccccc2)cc1OC | inconclusive [inhibitor, single point]
CCOC(=O)Cc1c(C)nc2cc(-c3ccc(C)cc3)[nH]n2c1=O | inconclusive [inhibitor, single point]
O=C(c1cccs1)N1CCN(Cc2ccncc2)CC1 | inconclusive [inhibitor, single point]
Brc1ccc(Oc2nsnc2N2CCOCC2)cc1 | inactive
COc1cccc(CNC(=O)C2CCC(CNS(=O)(=O)c3cccc4nsnc34)CC2)c1 (centres undefined) | active: 20 µM
COc1ccc(C(=O)C2CCCN(Cc3ccc4nonc4c3)C2)cc1F (centres undefined) | inconclusive [inhibitor, single point]
CCOC(=O)N1CC=C2C(C#N)=C(N)C(C#N)(C#N)[C@H](c3ccsc3)[C@H]2C1 | inconclusive [inhibitor, partial curve]
COCCN1C(=O)C(=O)/C(=C(/O)c2cccc(OC)c2)C1c1ccncc1 (centres undefined) | inconclusive [inhibitor, single point]
CCCOc1cccc(C(=O)O)c1 | inactive

Compound | Potency
O=C(CCCOc1ccccc1)Nc1ccc(S(=O)(=O)Nc2ccccn2)cc1 | inconclusive [inhibitor, single point]
Cc1nc(NC(=O)COc2ccccc2)sc1C(=O)Nc1ccccc1 | inconclusive [inhibitor, single point]
Cc1ccc(Nc2c(-c3ccc(C)o3)nc3cnccn23)cc1 | inconclusive [inhibitor, partial curve]
CCOc1ccc(C2CC(c3ccc(CC)cc3)n3nc(N)nc3N2)cc1 (centres undefined) | inconclusive [inhibitor, partial curve]
Cc1ccc(NS(=O)(=O)c2cc(C(=O)NCc3ccccn3)ccc2Cl)cc1C | inactive
CSCCC(CO)NC(=O)OCc1ccccc1 (centres undefined) | inconclusive [inhibitor, single point]
Cc1cccc2c1nc(-c1ccccc1)n1cnnc21 | inconclusive [inhibitor, single point]
COc1ccc(Oc2ncc3nc(CCc4ccccc4)c(=O)n(C)c3n2)cc1 | inconclusive [inhibitor, partial curve]
COc1ccc(-c2ccc(OC(=O)NC3CCS(=O)(=O)C3)cc2)cc1 (centres undefined) | inactive
COc1ccc(C(=O)N/N=C(\C)c2ccc3c(c2)C2C=CCC2C(c2ccccc2)N3)cc1 (centres undefined) | active: 11.2 µM
O=C(NC1CCCC1)c1csc2c1CCCC2 | inconclusive [inhibitor, single point]
CCCn1nnc(NC(=O)/C=C/c2ccc(C(C)C)cc2)n1 | active: 14.1 µM
COc1ccc(-c2nn(-c3ccccc3)cc2C(=O)O)cc1OC | inconclusive [inhibitor, partial curve]
O=C(CSCc1cnn(-c2ccccc2)c1-n1cccc1)N1CCN(Cc2ccccc2)CC1 | inconclusive [inhibitor, single point]
CCn1c(SCC(=O)OCc2ccccc2)nnc1-c1ccco1 | inactive
COc1ccc(OC)c2c(N3CCN(C)CC3)cc(C(F)(F)F)nc12 | inconclusive [inhibitor, partial curve]
CCn1cc(/C=N\NC(=O)c2ccc(Cl)cc2)cn1 | inactive
CC1(C)CC(=O)C(C(=O)/C=C/c2ccco2)C(=O)C1 | inconclusive [inhibitor, single point]
COCCCNc1nc(SCc2ccccc2)nc2sc3c(c12)CCC3 | inactive
C/C(=C\C(=O)c1ccc(Cl)cc1Cl)N(C)C | active: 5.62 µM
CN(C)S(=O)(=O)c1cccc(NC(=O)c2ccc(N3CCOCC3)c([N+](=O)[O-])c2)c1 | active: 17.8 µM
CN(C)S(=O)(=O)c1cccc(NC(=O)COC(=O)/C=C/c2ccc3c(c2)OCO3)c1 | inconclusive [inhibitor, single point]
Clc1ccccc1/C=C\c1ccnc2ccccc12 | inconclusive [inhibitor, partial curve]
CCN(CC(=O)Nc1ccc(N2CCOCC2)cc1)Cc1nc2ccccc2c(=O)[nH]1 | active: 22.4 µM
